Test results reported in article PMC7442955, “Biochemical and functional characterization of a meiosis-specific Pch2/ORC AAA+ assembly” (Life Science Alliance, 2020).
Results are given in words; binding and its absence hold for the method and conditions named. For some assays here: Binding seen in cells or lysates may run through a third protein. Some entries that bind do so weakly or less than the wild type. Where a sequence is shown, tags or fusion partners need not be part of it.

T1: Orc1 (yeast two-hybrid fusion) (budding yeast) (UniProt P54784)
T1 sequence: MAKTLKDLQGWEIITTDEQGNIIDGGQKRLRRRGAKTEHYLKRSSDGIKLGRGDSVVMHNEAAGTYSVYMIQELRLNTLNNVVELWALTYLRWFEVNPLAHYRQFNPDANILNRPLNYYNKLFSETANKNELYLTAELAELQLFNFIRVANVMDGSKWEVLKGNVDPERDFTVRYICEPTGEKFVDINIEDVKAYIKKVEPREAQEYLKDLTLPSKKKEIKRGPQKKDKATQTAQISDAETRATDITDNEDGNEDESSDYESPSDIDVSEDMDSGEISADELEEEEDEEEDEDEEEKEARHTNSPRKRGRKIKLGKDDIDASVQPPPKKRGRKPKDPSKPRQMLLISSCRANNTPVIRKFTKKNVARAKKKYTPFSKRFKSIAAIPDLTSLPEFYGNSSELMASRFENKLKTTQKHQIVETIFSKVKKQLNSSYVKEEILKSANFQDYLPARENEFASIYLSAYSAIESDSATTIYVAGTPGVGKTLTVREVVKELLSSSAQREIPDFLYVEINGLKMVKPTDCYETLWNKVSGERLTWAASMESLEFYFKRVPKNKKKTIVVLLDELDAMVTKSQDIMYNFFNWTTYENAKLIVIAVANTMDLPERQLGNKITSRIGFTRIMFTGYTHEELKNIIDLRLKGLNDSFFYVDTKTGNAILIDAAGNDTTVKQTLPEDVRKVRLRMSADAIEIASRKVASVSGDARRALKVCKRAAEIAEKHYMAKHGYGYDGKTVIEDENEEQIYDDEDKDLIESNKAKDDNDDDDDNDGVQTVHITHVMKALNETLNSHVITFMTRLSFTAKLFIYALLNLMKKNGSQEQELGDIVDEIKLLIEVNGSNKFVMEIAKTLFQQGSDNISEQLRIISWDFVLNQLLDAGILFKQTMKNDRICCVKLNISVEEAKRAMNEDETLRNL

T2: Orc1–TAP (budding yeast) (UniProt P54784)
T2 sequence: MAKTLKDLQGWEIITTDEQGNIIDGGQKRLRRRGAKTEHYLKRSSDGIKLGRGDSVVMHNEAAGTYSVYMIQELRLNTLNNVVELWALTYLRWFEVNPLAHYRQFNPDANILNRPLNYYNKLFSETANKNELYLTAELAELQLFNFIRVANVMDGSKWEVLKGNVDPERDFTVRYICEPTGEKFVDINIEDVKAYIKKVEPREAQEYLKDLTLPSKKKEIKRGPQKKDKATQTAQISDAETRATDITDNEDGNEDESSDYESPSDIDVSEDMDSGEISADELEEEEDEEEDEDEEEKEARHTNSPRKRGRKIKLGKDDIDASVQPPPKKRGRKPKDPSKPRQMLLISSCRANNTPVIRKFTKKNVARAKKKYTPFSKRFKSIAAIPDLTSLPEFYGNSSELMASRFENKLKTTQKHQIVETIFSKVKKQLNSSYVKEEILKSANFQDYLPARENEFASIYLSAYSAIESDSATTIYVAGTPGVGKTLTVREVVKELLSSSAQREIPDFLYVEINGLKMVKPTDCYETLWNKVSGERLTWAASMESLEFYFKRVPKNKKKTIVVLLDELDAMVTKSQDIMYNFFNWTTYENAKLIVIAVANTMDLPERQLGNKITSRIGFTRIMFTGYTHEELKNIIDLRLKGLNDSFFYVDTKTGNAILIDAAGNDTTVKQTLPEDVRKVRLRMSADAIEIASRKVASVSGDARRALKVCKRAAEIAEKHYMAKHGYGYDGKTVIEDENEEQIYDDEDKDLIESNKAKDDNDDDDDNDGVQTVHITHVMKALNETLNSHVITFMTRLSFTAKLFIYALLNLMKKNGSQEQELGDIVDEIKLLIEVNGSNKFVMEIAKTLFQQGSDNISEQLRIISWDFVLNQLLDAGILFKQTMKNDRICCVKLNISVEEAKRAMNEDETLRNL


Assays:
[1] = biological target: T1, Orc1 (yeast two-hybrid fusion) (budding yeast); experiment: two-hybrid; bait and prey in pGBDU-C1 or pGAD-C1, reporter strain yGV864; spot assay on -Ura-Leu-His plates, 2–4 d
Orc1–TAP (budding yeast) = biological target: T2, Orc1–TAP (budding yeast); experiment: co-IP; α-TAP IP (Dynabeads protein G) from lysates of meiotic prophase cells (4-5 h into the meiotic program); IP buffer 50 mM Tris–HCl pH 7.5, 150 mM NaCl, 1% Triton X-100, 1 mM EDTA; also with Benzonase, in ORC1 or orc1-161 backgrounds at 23°C, and in orc2–FRB cells with rapamycin or DMSO

Row | binding [1] | binding (Orc1–TAP (budding yeast)) | Binder
1 | binds |  | Pch2 2-144 (yeast two-hybrid fusion) (domain or fragment, UniProt P38126 2-144) SYIVDLQVRGSSLRVIKCMFREDEQISSLHSGSDSKQNSNKKLGEFLNLLKAVVKRKLESFPKDRLKTSIITGQELMREGQGSIEIKDPPTEAQQHLIRSLAKVLLHQFSSINGKVNTVNEGQDNLFLSLFVKKISIEQQSTS
2 | binds |  | Pch2 2-242 (yeast two-hybrid fusion) (domain or fragment, UniProt P38126 2-242) SYIVDLQVRGSSLRVIKCMFREDEQISSLHSGSDSKQNSNKKLGEFLNLLKAVVKRKLESFPKDRLKTSIITGQELMREGQGSIEIKDPPTEAQQHLIRSLAKVLLHQFSSINGKVNTVNEGQDNLFLSLFVKKISIEQQSTSHVSIKLNFHEKINLGQHIDSILDSEETNESDTYHMGSVDEFIIYPFCCLEEQDELKNGSILSTEFDKIDLELDEDDGFEGETLNNCINSVGNFDIPLS
3 |  | binds | Pch2 (wild type, expressed in meiotic cells) (protein, UniProt P38126 1-564) MSYIVDLQVRGSSLRVIKCMFREDEQISSLHSGSDSKQNSNKKLGEFLNLLKAVVKRKLESFPKDRLKTSIITGQELMREGQGSIEIKDPPTEAQQHLIRSLAKVLLHQFSSINGKVNTVNEGQDNLFLSLFVKKISIEQQSTSHVSIKLNFHEKINLGQHIDSILDSEETNESDTYHMGSVDEFIIYPFCCLEEQDELKNGSILSTEFDKIDLELDEDDGFEGETLNNCINSVGNFDIPLSKQTLNLVNISYLPGTTFEGQWESLYFGNNIKERLYSYATISLKIARFKQTGDSNQEDITTLITNNKLLLVHGPPGTGKTTLCKALCQKLSVRREFSDGSDTIDTNYKGIIIELSCARIFSKWFGESSKNISIVFKDIEELLKVNEGRGIFICLLIDEVEAIASSRTNLSSRNESTDGIRVVNTLLTQLDRLKKYHNFLALATSNLLDSLDDAFVDRADGVFYVGNPTAEGILHILKVCIEEMITSGIILFHARSTGVKFFNKYQDILRKIAIKCSTVDISGRTIRKLPLMCLSEYFRTFPVDDDEFVLALAMSARKLSAARK
4 |  | binds | 3xFlag-Pch2 (protein, UniProt P38126 1-564) MSYIVDLQVRGSSLRVIKCMFREDEQISSLHSGSDSKQNSNKKLGEFLNLLKAVVKRKLESFPKDRLKTSIITGQELMREGQGSIEIKDPPTEAQQHLIRSLAKVLLHQFSSINGKVNTVNEGQDNLFLSLFVKKISIEQQSTSHVSIKLNFHEKINLGQHIDSILDSEETNESDTYHMGSVDEFIIYPFCCLEEQDELKNGSILSTEFDKIDLELDEDDGFEGETLNNCINSVGNFDIPLSKQTLNLVNISYLPGTTFEGQWESLYFGNNIKERLYSYATISLKIARFKQTGDSNQEDITTLITNNKLLLVHGPPGTGKTTLCKALCQKLSVRREFSDGSDTIDTNYKGIIIELSCARIFSKWFGESSKNISIVFKDIEELLKVNEGRGIFICLLIDEVEAIASSRTNLSSRNESTDGIRVVNTLLTQLDRLKKYHNFLALATSNLLDSLDDAFVDRADGVFYVGNPTAEGILHILKVCIEEMITSGIILFHARSTGVKFFNKYQDILRKIAIKCSTVDISGRTIRKLPLMCLSEYFRTFPVDDDEFVLALAMSARKLSAARK
5 | no binding |  | Pch2 2-60 (yeast two-hybrid fusion) (domain or fragment, UniProt P38126 2-60) SYIVDLQVRGSSLRVIKCMFREDEQISSLHSGSDSKQNSNKKLGEFLNLLKAVVKRKLE
